The whole screen tested about 310,000 compounds, of which about 14,000 (4.5%) showed an effect of 50% or more. Effects have a minus sign here. The list shows a part of the results.
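Further: peak tail current of the secondary pulse compared with the same well before compound.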

This test deals with human ether-à-go-go-related gene (hERG) potassium channel (human, UniProt Q12809). Description: primary screen, population patch clamp on CHO cells stably expressing hERG.
human ether-à-go-go-related gene (hERG) potassium channel, sequence (Q12809 whole entry, looked up): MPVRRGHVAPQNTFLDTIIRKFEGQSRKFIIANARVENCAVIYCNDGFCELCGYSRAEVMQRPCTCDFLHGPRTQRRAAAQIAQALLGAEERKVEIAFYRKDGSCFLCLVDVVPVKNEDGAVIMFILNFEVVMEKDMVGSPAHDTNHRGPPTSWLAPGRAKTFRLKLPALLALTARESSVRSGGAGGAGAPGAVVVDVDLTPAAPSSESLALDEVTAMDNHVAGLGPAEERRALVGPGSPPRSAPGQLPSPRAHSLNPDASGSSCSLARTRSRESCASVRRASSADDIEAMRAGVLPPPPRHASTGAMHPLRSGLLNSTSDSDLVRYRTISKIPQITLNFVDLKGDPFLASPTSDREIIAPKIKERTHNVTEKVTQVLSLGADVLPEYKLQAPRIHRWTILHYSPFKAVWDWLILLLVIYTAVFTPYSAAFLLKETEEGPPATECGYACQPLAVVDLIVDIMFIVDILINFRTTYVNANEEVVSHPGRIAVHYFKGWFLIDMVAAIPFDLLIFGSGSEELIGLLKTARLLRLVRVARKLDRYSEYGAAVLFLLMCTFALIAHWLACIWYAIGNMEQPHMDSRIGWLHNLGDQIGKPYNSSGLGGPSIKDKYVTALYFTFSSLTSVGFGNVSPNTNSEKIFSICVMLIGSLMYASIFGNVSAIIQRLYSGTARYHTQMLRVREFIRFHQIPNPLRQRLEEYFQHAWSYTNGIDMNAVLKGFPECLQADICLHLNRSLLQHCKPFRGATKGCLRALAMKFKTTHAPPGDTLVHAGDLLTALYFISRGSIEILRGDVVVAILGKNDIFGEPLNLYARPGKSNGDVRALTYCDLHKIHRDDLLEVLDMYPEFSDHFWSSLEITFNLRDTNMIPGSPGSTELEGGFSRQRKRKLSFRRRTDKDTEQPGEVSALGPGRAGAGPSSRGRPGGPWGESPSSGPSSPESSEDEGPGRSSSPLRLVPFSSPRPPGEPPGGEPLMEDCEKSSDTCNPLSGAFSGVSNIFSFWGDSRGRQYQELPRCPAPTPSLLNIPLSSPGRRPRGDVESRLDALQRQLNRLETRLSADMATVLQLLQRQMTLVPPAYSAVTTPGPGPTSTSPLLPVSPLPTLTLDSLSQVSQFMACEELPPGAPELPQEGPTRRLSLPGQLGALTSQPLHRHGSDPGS
Consider `C/C(=N/OCO/N=C(\C)c1ccc(F)cc1F)c1ccc(F)cc1F`, for which the “hERG current change (%, negative = inhibition) at 10uM” value was 10.1%. The same measure for `CCOc1cc(C2CC(=O)Nc3cc(C)c(C)cc32)ccc1O` (stereo not drawn): -3.27%; for `CCN=C1SC(CC(=O)Nc2ccc(C(F)(F)F)cc2)C(=O)N1CC` (stereo not drawn): -11.9%. The same measure for `CCN1CCN(C(=O)C(=O)c2cn(CC(=O)N3CCCC3)c3ccccc23)CC1`: 15.1%. As for `O=C(CCC(=O)OCC(=O)c1ccc(Cl)cc1)NC1CCCCC1`, the figure is -8.6%; as for `CC(=O)OCC(=O)Nc1ccc(Cl)cc1Cl`, 5.44%; as for `COc1cccc(C(=O)NC2CCN(CC(=O)Nc3cccc(C)c3C)CC2)c1`, 32.2%. As to `O=C(NCCn1ccc2ccccc21)c1ccc2c(c1)OCO2`, the “hERG current change (%, negative = inhibition) at 10uM” value was -12.8%. As for `O=c1[nH]c(=O)n(-c2ccc(F)cc2)c(O)c1C=NCCN1CCCCC1`, the figure is -14.3%; as for `COc1ccc(NC(=O)CN2C(=O)COc3ccc(S(=O)(=O)N4CCCCC4)cc32)c(OC)c1`, 4.84%; as for `Cc1cc(C)n2nc(C(=O)NCc3cccc(C(F)(F)F)c3)nc2n1`, -11.7%. As for `COc1cccc(C(C)NC(=O)Nc2cccc(C(F)(F)F)c2)c1` (stereo not drawn), the figure is -6.17%; as for `CCOC(=O)N1CCC(NC(=O)c2cc3c(-c4ccccc4F)nn(C)c3s2)CC1`, 13.5%; as for `CC(=O)N1CCC2(CC1)CC(=O)c1cc(Cl)ccc1O2`, -55.2%. Turning to `Cc1ccc(NS(=O)(=O)c2c(C(=O)N3CCOCC3)c(C)n(C)c2C)cc1C`, the “hERG current change (%, negative = inhibition) at 10uM” value was determined as 9.01%. On to `O=C(NC1CCC(O)CC1)c1ccc(-c2ccc(Cl)cc2)o1` (stereo not drawn), for which the “hERG current change (%, negative = inhibition) at 10uM” value is on record as -21.8%. As for `CSc1ccccc1C(=O)OCC(=O)N1CCN(C(C)=O)CC1`, the figure is 17.4%; as for `CCN1c2ccccc2-c2nc3ccccc3n2C1c1ccncc1` (stereo not drawn), -5.74%; as for `CC(=O)Nc1sc(C)c(C)c1C(=O)OCC(=O)NCc1ccc(F)cc1`, 10.9%.

On to `COc1ccc(CCNC(=O)C2CCN(S(=O)(=O)c3ccc4c(c3)oc(=O)n4C)CC2)cc1OC`, for which the “hERG current change (%, negative = inhibition) at 10uM” value came to 13.8%. As for `O=c1[nH]c2ccc(S(=O)(=O)NCc3ccccn3)cc2s1`, the figure is 14.9%; as for `N#Cc1ccc(CN2CCN(CC(=O)NCCc3ccc(Cl)cc3Cl)CC2)cc1`, -68.8%. As to `CN(C(=S)NC1=CCS(=O)(=O)C1)C1CCCCC1`, the “hERG current change (%, negative = inhibition) at 10uM” value came out at 0.959%.

With `O=C([O-])CCCNC(=O)C(c1ccccc1)c1ccccc1.[Li+]`, the “hERG current change (%, negative = inhibition) at 10uM” value is listed as -22.1%. The same measure for `Cc1c(OC(C)C(=O)O)ccc2c(-c3ccccc3)cc(=O)oc12` (stereo not drawn): 18.3%. As for `O=C(COc1ccc(Cl)cc1)N(Cc1cccs1)C1CCS(=O)(=O)C1` (stereo not drawn), the figure is -48.1%.

In the case of `COc1ccccc1-c1cc2nc(C)c(CCC(=O)NCc3ccc(F)cc3)c(C)n2n1`, the “hERG current change (%, negative = inhibition) at 10uM” value was -49.7%.

As for `COc1cccc(C(=O)NCC(=O)N2CCC3(CC2)NCCc2[nH]cnc23)c1OC`, the “hERG current change (%, negative = inhibition) at 10uM” value stood at 19%. As for `COc1ccc2c(-c3cccnc3)cc(=O)[nH]c2c1`, the figure is -3.74%; as for `COC(=O)C1=C(c2ccc(OC(F)(F)F)cc2)C[C@@H]2CC[C@H]1N2C(=O)NCCc1ccccc1`, -23.2%. As for `CN(c1ccccc1C(=O)Nc1cccc(C(F)(F)F)c1)S(C)(=O)=O`, the figure is -2.04%. The same measure for `COc1ccccc1NC(=O)Nc1nc(CC(=O)Nc2cc(F)ccc2F)cs1`: -2.13%. Regarding `COc1ccc(Cn2c(=O)[nH]c3cc(OC)c(OC)cc3c2=O)cc1`, the “hERG current change (%, negative = inhibition) at 10uM” value was found to be 7.17%.

On to `Cc1nnc(NC(=O)C(C)Sc2nnc(-c3ccco3)n2C(C)C)s1` (stereo not drawn), for which the “hERG current change (%, negative = inhibition) at 10uM” value worked out at 15.5%. As for `Cc1ccc(C(=O)COC(=O)CCCC(=O)Nc2cc(C(F)(F)F)ccc2Cl)cc1C`, the figure is 24.7%. The same measure for `CC1CCCCN1CCCNC(=O)c1ccc2nc(N3CCCCC3)sc2c1` (stereo not drawn): -22.8%. As for `NC(=O)c1sc2nnc(-c3ccccc3)c(-c3ccccc3)c2c1N`, the figure is 10.2%; as for `CCCn1nnnc1NCc1ccc(F)cc1`, 7.59%. As to `CCCCc1ccc(NC(=O)C(=O)NCCN2CCN(C(=O)c3ccc([N+](=O)[O-])cc3)CC2)cc1`, the “hERG current change (%, negative = inhibition) at 10uM” value is on record as -22.4%. The same measure for `CCOC(=O)c1ccccc1NC(=O)Cn1c(=O)n(Cc2ccccc2)c(=O)c2c(C)c(C)sc21`: 1.6%. The same measure for `O=C(CSc1ccc2nnc(-c3cccs3)n2n1)N1CCCC1`: -43.4%. The same measure for `CCCNC(=O)N1[C@H]2CC[C@@H]1C(C(=O)OC)=C(c1ccc(OC)c(OC)c1)C2`: -1.93%. As to `Cc1ccc(C(=O)CCC(=O)NC2=NCCS2)cc1`, the “hERG current change (%, negative = inhibition) at 10uM” value is reported as 4.77%. As to `CNC(=O)C1CC(=O)N(Cc2ccc3c(c2)OCO3)C(=Nc2ccc(OC)cc2)S1` (stereo not drawn), the “hERG current change (%, negative = inhibition) at 10uM” value is reported as 9.5%. The same measure for `O=c1sc2ccccc2n1CCOc1ccccc1`: -6.66%; for `COCCCN(CCC#N)C(=O)c1c(-c2c(Cl)cccc2Cl)noc1C`: 11.7%. As for `COc1ccccc1NC(=O)Nc1ccc(-n2ccc(C(F)(F)F)n2)cc1`, the figure is -4.83%; as for `CC(NC(=O)CCc1nc2cc(S(=O)(=O)N3CCOCC3)ccc2n1C)c1ccc(S(N)(=O)=O)cc1` (stereo not drawn), -57.9%; as for `CC1CCN(C(=O)CN(c2ccccc2)S(=O)(=O)N(C)C)CC1`, 14.2%. Take `CCOC(=O)c1c(CC(C)C)csc1NC(=O)COC(=O)C1=NNC(=O)CC1`: the “hERG current change (%, negative = inhibition) at 10uM” value is on record as 10.7%. As for `CS(=O)(=O)N(CC(=O)Nc1ccccc1C(=O)N1CCOCC1)c1ccc2c(c1)OCO2`, the figure is 12%; as for `Fc1ccc(Nc2nc3ccccc3s2)cc1`, 20.3%; as for `CCCCNc1ccncc1S(=O)(=O)NC(=O)NC(C)C.O=[N+]([O-])O`, 8.21%.

For `CCn1c(=O)cc(SCC(=O)Nc2cccnc2)c2ccccc21`, the “hERG current change (%, negative = inhibition) at 10uM” value is given as -12.8%. As for `Cn1c(=O)c2c(nc(Br)n2CC(=O)c2cccs2)n(C)c1=O`, the figure is -6.03%. The same measure for `O=C1C=C(c2ccc(Oc3ccccc3)cc2)C[C@@H](c2ccc(F)cc2)C1`: 11.4%. As to `COc1ccc(C(=O)NCCCn2ccnc2)cc1.Cl`, the “hERG current change (%, negative = inhibition) at 10uM” value is listed as -5.63%.

`NC(=O)CSc1nnc(Cn2c(=O)sc3ccccc32)n1CCc1ccccc1`: the “hERG current change (%, negative = inhibition) at 10uM” value is -5.68%. The same measure for `O=C(O)CN1C(=O)C2(OCCO2)c2cc(Br)ccc21`: 11.2%. The same measure for `Cl.Clc1ccc(COc2ccccc2CNCc2cccnc2)cc1`: -31.1%. Regarding `Cc1ccc(NC(=O)C2CCC(=O)N2C(=O)OCc2ccccc2)cc1` (stereo not drawn), the “hERG current change (%, negative = inhibition) at 10uM” value is -23.5%. The same measure for `C[C@@H](C(=O)Nc1nc(-c2ccccn2)cs1)N1C(=O)C2CCCCC2C1=O` (stereo partly drawn): 8.05%; for `CCC(CC)c1nnc(NC(=O)C23CC4CC(CC(NC(C)=O)(C4)C2)C3)s1`: -9.08%; for `Cc1cccc(C)c1NC(=O)C(NS(=O)(=O)c1cccs1)c1ccccc1` (stereo not drawn): 2.73%. The same measure for `Cc1nc2sc(C(c3ccc(Cl)cc3)N3CCN(c4ccccc4F)CC3)c(O)n2n1` (stereo not drawn): -48.6%; for `CC(C)Cn1c(N)c(C(=O)COC(=O)c2ccc3c(c2)OCCO3)c(=O)n(C)c1=O`: -34.6%. The same measure for `Cc1cc2nccc(-c3ccco3)n2n1`: 3.22%; for `Cc1ccc(N(C(C)C(=O)N2CCCC2)S(C)(=O)=O)cc1` (stereo not drawn): 14%; for `O=C(CSc1n[nH]c(=O)n1Cc1ccco1)Nc1ccccc1`: 1.99%. In the case of `O=C(CCCc1nc2ccccc2s1)NCc1ccccc1F`, the “hERG current change (%, negative = inhibition) at 10uM” value is on record as -20.2%. As for `CC1Cc2cc(/C(O)=C3/C(=O)C(=O)N(CCN4CCOCC4)C3c3cccc(Cl)c3)ccc2O1` (stereo not drawn), the figure is 6.53%; as for `NS(=O)(=O)c1ccc(CNC(=O)Cc2ccsc2)cc1`, 17.2%.

Take `Nc1nonc1-n1nnc(C(=O)N/N=C/c2ccc(Br)cc2)c1CSC1=NCCS1`: the “hERG current change (%, negative = inhibition) at 10uM” value is -3.36%.

For the compound `CCOC(=O)c1ccccc1NC(=O)CSc1nnc(C)c(=O)[nH]1`, the “hERG current change (%, negative = inhibition) at 10uM” value is 22.6%. The same measure for `O=C(COn1nnc2ccc(S(=O)(=O)N3CCOCC3)cc21)Nc1c(F)c(F)c(F)c(F)c1F`: 15.7%. As for `O=S(=O)(c1ccc2c(c1)nc(COc1ccc(Cl)cc1)n2CC1CCCO1)N1CCOCC1` (stereo not drawn), the “hERG current change (%, negative = inhibition) at 10uM” value is reported as -65.2%. As to `O=C1c2ccccc2C(=O)C12OC2c1ccc(Cl)cc1Cl` (stereo not drawn), the “hERG current change (%, negative = inhibition) at 10uM” value turned out to be 4.07%. As for `COC(=O)C(NC(=O)C(CC(C)C)NC(=O)C1CCC(C)CC1)C(C)C` (stereo not drawn), the figure is -2.1%; as for `C=CCn1c(-c2ccc([N+](=O)[O-])cc2)n[nH]c1=S`, 14%; as for `C[C@]12CCC3c4ccc(O)cc4CCC3C1CC/C2=N\N` (stereo partly drawn), 9.03%. For `COc1cc(NC(=O)CCC(=O)O)nc(OC)n1`, the “hERG current change (%, negative = inhibition) at 10uM” value is listed as 5.22%. As for `Cc1ccc(CN2CCNC(=O)C2CC(=O)N(C)CCc2cnn(C)c2)cc1` (stereo not drawn), the figure is 17.2%; as for `Cc1nn(C(C)C(=O)O)c2ccccc12` (stereo not drawn), 5.91%; as for `CC1=NN(c2ccccc2)C(=O)/C1=C\c1cn(CCC#N)nc1-c1ccc(Cl)cc1`, 22%. The same measure for `Cc1ccccc1-n1c(SCC(=O)N/N=C/c2ccccc2OCC(=O)O)nc2ccccc2c1=O`: 2.74%; for `O=C(CC12CC3CC(CC(Br)(C3)C1)C2)NC1=NCCS1`: -6.87%. The same measure for `COc1ccc(NC(=O)C(=O)c2cn(CC(=O)N3CCCC3)c3ccccc23)c(OC)c1`: 11.9%.

For the origin of these results see PMC4336329 (PLoS ONE, 2015).
